This is an account of results in ChEMBL document CHEMBL4888484, “Replenishing the malaria drug discovery pipeline: Screening and hit evaluation of the MMV Hit Generation Library 1 (HGL1) against asexual blood stage Plasmodium falciparum ,using a nano luciferase reporter read-out” (2022).

Each structure is given as a SMILES string. The campaign covered roughly 150,000 compounds. About 540 (0.36%) showed an effect of 50% or more. This is one part of the list.

For the assay, the system named is Plasmodium falciparum. The assay can be described thus: Primary screen in NF54 nanoGlo assay, in single point, at 2uM, 72h; a lower Z score goes with more inhibition. The assay is classed as functional, Erythrocyte. Conditions: timepoint 72 hour.
Take `O=C(Cc1csc(-c2ncccn2)n1)Nc1ccc2c(c1)CCC2`: the “% Inhibition” value was -37% and the Z score is 4.3.

Regarding `Cc1ccc(CN(CCN2CCOCC2)C[C@H](O)COCc2ccccc2)c(C)c1`, the “% Inhibition” value is -10% and the Z score was 1.21.

Regarding `COC[C@H](NC(=O)Nc1cccnn1)c1ccc(Cl)cc1`, the “% Inhibition” value is listed as 1% and the Z score is recorded as -0.22.

`Cn1cc(C#N)cc1C(=O)N[C@H](c1cccnc1)C(F)(F)F`: the “% Inhibition” value is given as -1% and the Z score stood at 0.09.

For the compound `Cc1cccc(-c2ncc(C(=O)N3CC(O)C3)c(O)n2)c1`, the “% Inhibition” value is 1% and the Z score is -0.11.

`NC(=O)N1CCOc2ccc(F)cc2C1`: the “% Inhibition” value is on record as -7% and the Z score was determined as 0.56.

Consider `Cc1cnccc1CN(C)C(=O)[C@H]1CCS(=O)(=O)C1`, for which the “% Inhibition” value is -3% and the Z score came to 0.58.

Consider `CC(C)c1noc(CN(C)[C@@H](C)C(=O)NCc2ccccc2)n1`, for which the “% Inhibition” value is listed as 6% and the Z score is on record as -1.1.

Regarding `Cn1ccc(NC(=O)C(=O)N2CCC[C@H]2c2cccc(F)c2)n1`, the “% Inhibition” value is -13% and the Z score came out at 1.74.

In the case of `COc1ccc(CN2C(=O)c3cc(-c4ccc(OC)cc4)nn3C[C@@]2(C)C(=O)NCc2ccccc2)cc1`, the “% Inhibition” value was found to be 6% and the Z score was -0.96.

With `Cc1ccccc1C1(C(=O)NC2CCN(CCS(C)(=O)=O)CC2)CCCC1`, the “% Inhibition” value came out at 5% and the Z score is listed as -0.69.

For the compound `Cc1c(C#N)c(NC(=O)C[C@H](n2cccn2)C(F)(F)F)nn1C`, the “% Inhibition” value was 10% and the Z score was -1.36.

As to `COc1ccc2c(c1)c(CN1C[C@@H](CO)[C@H](NC(C)=O)C1)cn2C(C)C`, the “% Inhibition” value is -5% and the Z score was 0.98.

With `CN(CC(C)(C)S(C)(=O)=O)c1nnc(C(F)(F)F)s1`, the “% Inhibition” value is listed as -5% and the Z score turned out to be 0.51.

On to `CCOC(=O)c1ncn(C2CCN(C(=O)Nc3ccc(N(C)C(C)C)c(F)c3)CC2)c1N`, for which the “% Inhibition” value is -2% and the Z score amounted to 0.18.

On to `CCc1noc(COCC(=O)N2CCC[C@]2(C)Cc2cc(Cl)cs2)n1`, for which the “% Inhibition” value is recorded as -2% and the Z score amounted to 0.3.

In the case of `COC[C@@H](c1ccccn1)N(C)Cc1noc(C2CCCC2)n1`, the “% Inhibition” value is reported as -11% and the Z score is recorded as 1.46.

Regarding `CC1(C)OCC2CC21NC(=O)Nc1cnn(-c2ncccc2C#N)c1` (stereo not drawn), the “% Inhibition” value is on record as 6% and the Z score was -0.77.

Regarding `CCCO/C(=N/C(=O)c1ccc2c(c1)OCO2)NCCCc1ccccc1`, the “% Inhibition” value is on record as -13% and the Z score is recorded as 1.9.

With `CN(Cc1cc(C(F)(F)F)n[nH]1)C1CCOCC1`, the “% Inhibition” value is recorded as 4% and the Z score is given as -0.56.

On to `CCn1cc(-c2ccccc2)cc1C(=O)N1CCCC1`, for which the “% Inhibition” value amounted to 5% and the Z score is -0.82.

For `CNC(=O)Cc1ccccc1NC(=O)N[C@H]1CCCN(C(=O)OC)C1`, the “% Inhibition” value is reported as -5% and the Z score was 0.61.

On to `N#Cc1c(F)cccc1NCc1nccs1`, for which the “% Inhibition” value is given as -11% and the Z score worked out at 1.19.

As for `CCc1nc(C)c(C(=O)NC(C)C2CC3CCC2C3)s1` (stereo not drawn), the “% Inhibition” value is -5% and the Z score turned out to be 0.59.

As to `N#Cc1c(N)nc2c(c1-c1cccn1-c1ccccn1)C[C@@H](N)CC2`, the “% Inhibition” value is recorded as -7% and the Z score amounted to 1.19.

Take `C[C@@H](c1nccs1)N1CCN(S(=O)(=O)c2cnnn2C)CC1`: the “% Inhibition” value is reported as 8% and the Z score is -1.48.

As to `OC[C@H](Cc1c[nH]c2ccccc12)Nc1ncc(Br)cn1`, the “% Inhibition” value is reported as 2% and the Z score was -0.33.

`CC(C)c1cc(C(=O)N2CCN(c3ccccn3)CC2)c2ccccc2n1`: the “% Inhibition” value is given as -1% and the Z score was found to be 0.16.

Consider `O=C(Nc1ccc(CC(=O)N2CCOCC2)cc1)[C@@H]1CC=CCC1`, for which the “% Inhibition” value was 0% and the Z score was 0.04.

Regarding `CC(C)c1cc(C(=O)Nc2cc(C(=O)O)cs2)no1`, the “% Inhibition” value is given as 34% and the Z score is reported as -3.81.

As to `Cc1nc(C(=O)N2CCC(n3cc(CN4CCCC4)nn3)CC2)c[nH]1`, the “% Inhibition” value is given as -16% and the Z score is on record as 2.1.

Take `CCCN(CCC)C(=O)C[C@H](c1ccc(F)cc1)c1cn(Cc2ccc(F)cc2)c2ccccc12`: the “% Inhibition” value worked out at 0% and the Z score was determined as 0.02.

Regarding `Cc1nnnn1Cc1nc(-c2ccncc2)nn1C1CCCCC1`, the “% Inhibition” value is recorded as -25% and the Z score was found to be 2.24.

On to `CC1(C)C[C@@H](C(=O)N2CCC(n3cc(-c4ccccn4)nn3)CC2)CCO1`, for which the “% Inhibition” value was -2% and the Z score was 0.25.

With `O=C(c1cc(-n2cnnn2)[nH]n1)N1CCN(C2CCCCC2)CC1`, the “% Inhibition” value is -7% and the Z score is given as 1.31.

As for `O=C(NC1CC1)[C@@H]1CCCN1c1ncccc1Cl`, the “% Inhibition” value is recorded as -10% and the Z score was 0.87.

In the case of `COCc1nc(CCNC(=O)c2cccs2)no1`, the “% Inhibition” value is given as -3% and the Z score came out at 0.44.

Turning to `CCN(CC(=O)NCCC#N)Cc1cccc(F)c1`, the “% Inhibition” value is -14% and the Z score was 1.46.

Consider `CC[C@H](C)NC(=O)CN1CCN(C(=O)c2scnc2C2CCCC2)CC1`, for which the “% Inhibition” value came to 6% and the Z score is given as -0.79.

As for `CCn1cc(CN(C)C(=O)CCn2cnnn2)cn1`, the “% Inhibition” value was -9% and the Z score is reported as 1.36.

For `Cc1nn(-c2nc3ccccc3[nH]2)c2c1[C@@H](c1c(C)sc3ccccc13)CC(=O)N2`, the “% Inhibition” value worked out at 4% and the Z score is -0.46.

Take `COc1ccc(CN(C(=O)c2cc[nH]n2)[C@@H](C)C2CC2)c(OC)c1`: the “% Inhibition” value was 20% and the Z score is on record as -2.17.

Turning to `O=S(=O)(NCC[C@H](O)c1cccs1)c1cccs1`, the “% Inhibition” value is recorded as -3% and the Z score stood at 0.4.

Take `COC(=O)[C@H](Cc1ccc(OC)cc1)NC(=O)[C@H]1CN(C(=O)c2ccc(N(C)C)cc2)CCN1C(=O)NC1CCCCC1`: the “% Inhibition” value amounted to 17% and the Z score is -1.97.

Consider `Cc1ncsc1S(=O)(=O)N1CCOCC1`, for which the “% Inhibition” value is on record as -15% and the Z score is recorded as 1.65.

For the compound `Cc1ccc(CNC(=O)c2nn(C(C)C)c3c2COCC3)o1`, the “% Inhibition” value is reported as -9% and the Z score is 1.09.

On to `CC(C)(C)n1c(=O)c2ccc(Cl)cc2n1CC(=O)Nc1ccc(Cl)cc1F`, for which the “% Inhibition” value turned out to be 7% and the Z score is given as -1.11.

As to `COc1ccccc1S(=O)(=O)N1CCO[C@H](c2noc(C(C)C)n2)C1`, the “% Inhibition” value is -15% and the Z score came out at 1.59.

In the case of `O=C(Cn1ncn2nc(-c3ccccc3)cc2c1=O)N1CCC(Cc2ccccc2)CC1`, the “% Inhibition” value is given as -9% and the Z score is reported as 0.76.

In the case of `O=S(=O)(NCc1cc(-c2ccccc2Cl)no1)c1ccccc1`, the “% Inhibition” value is reported as -1% and the Z score turned out to be 0.11.

On to `Cc1ccccc1N(C(=O)C[C@H](C)N1CCCCC1=O)C(C)C`, for which the “% Inhibition” value is 2% and the Z score is on record as -0.4.

With `COc1c(F)cc(NC(=O)[C@H]2CNCCO2)cc1F`, the “% Inhibition” value came to 0% and the Z score amounted to 0.02.

Consider `O=C(C=Cc1cscn1)NOCc1ccccc1`, for which the “% Inhibition” value is on record as -1% and the Z score stood at 0.13.

For the compound `CN1CCN([C@H]2CN(c3ncccc3C#N)C[C@@H]2O)CC1`, the “% Inhibition” value was 1% and the Z score is given as -0.15.
